Laboratory results from PubChem BioAssay AID463173 (ICCB-Longwood Screening Facility, Harvard Medical School, 2010).
About 1,700 (3.3%) of roughly 52,000 compounds were called active. Rule as the data show it: active = survival mostly below about 52% (no sharp cut-off); inactive = mostly above about 56%. The list shows a part of the results.

What follows are compounds tested on Wild type (assay: growth inhibition of S. aureus wild type versus tarO mutant, primary screen, teichoic acid synthesis inhibitors, RN4220, OD600 (AID 463173)). Conditions: S. aureus RN4220 wild type/DeltatarO growth, OD600, 18 h, hits give low values, screened at 18.75 µg/mL (by protocol).

Question: For `c1ccc(Nc2nc(N3CCCCC3)nc(N3CCCCC3)n2)cc1`, which survival is on record?
Answer: inactive: 84%

Question: How did the survival turn out when `CN(C)c1nc(N(C)C)nc(N(C#N)CN2C(=O)c3ccccc3C2=O)n1` was run?
Answer: inactive: 107%

Question: Which survival does the source give for `CCOc1ccc(/C=C/C(=O)Nc2sc3c(c2C(=O)OC)CCC3)cc1` here?
Answer: inactive: 86%

Question: Which survival does the source give for `COc1cccc(NC(=O)c2c(C(=O)Nc3ccccc3)sc3nc(C)cc(=O)n23)c1` here?
Answer: inactive: 81%

Question: How did the survival turn out when `COc1cccc(Cn2c(SCc3ccc(C(=O)N4CCC(C)CC4)cc3)nc3ccncc32)c1` was run?
Answer: inactive: 134%

Question: How did the survival turn out when `CCC(Cc1ccccc1)NC(=O)c1csc2c1CCCCC2` (configuration not stated) was run?
Answer: inactive: 120%

Question: Which survival does the source give for `COc1cc(NC(=O)CCCSc2nc(-c3ccco3)cc(C(F)(F)F)n2)cc(OC)c1OC` here?
Answer: inactive: 61%

Question: How did the survival turn out when `COc1ccc2c(C)cc(SCC(=O)Nc3nsc(-c4ccc(C(C)(C)C)cc4)n3)nc2c1` was run?
Answer: active: 5%

Question: For `CCOc1ccc(N=C(c2ccccc2)N2CCOCC2)cc1`, which survival is on record?
Answer: inactive: 99%

Question: `COc1ccc2oc(-c3ccc(C)c(NC(=O)c4ccc(N5CCCCC5)c([N+](=O)[O-])c4)c3)nc2c1` was tested. Which survival did it give?
Answer: inactive: 77%

Question: For `CC(C)(C)OC(=O)N1CCC(c2c(C(=O)NCCN3CCOCC3)cnn2-c2ccccc2)CC1`, which survival is on record?
Answer: inactive: 64%

Question: With `CCN(c1ccccc1)S(=O)(=O)c1cc(C(=O)Nc2ccc(Br)cc2)ccc1F` as the compound, how does the survival read?
Answer: active: 1%

Question: For `CCOC(=O)c1c(Nc2ccccc2)nnc(-c2ccccc2)c1-c1ccccc1`, which survival is on record?
Answer: active: 5%

Question: `O=C(Cn1c(=O)oc2ccccc21)NCc1ccc(Cl)cc1` was tested. Which survival did it give?
Answer: inactive: 76%

Question: For `COc1ccccc1NC(=O)C1=C(C)Nc2ncnn2C1c1ccc[nH]1` (configuration not stated), which survival is on record?
Answer: inactive: 131%

Question: Which survival does the source give for `COc1ccc(CNC(=O)CN2CCSc3ccccc32)c(OC)c1` here?
Answer: inactive: 129%

Question: How did the survival turn out when `CCN(CC)C(=O)Cn1c(SCC(=O)Nc2ccc(C)c(C)c2)nc2ccccc21` was run?
Answer: inactive: 133%

Question: For `CN1CCN(c2ncc3c(n2)CCN(Cc2ccccc2Cl)C3)CC1`, which survival is on record?
Answer: inactive: 71%

Question: How did the survival turn out when `Cc1ccc(-n2ncc3c(NCCc4ccccc4)ncnc32)cc1` was run?
Answer: inactive: 76%

Question: Which survival does the source give for `CCOc1ccc(S(=O)(=O)n2nc(C)c(S(=O)(=O)N3CCCCCC3)c2C)cc1` here?
Answer: inactive: 111%

Question: For `Cc1cc2oc(C(=O)N(Cc3ccccc3)C3CCS(=O)(=O)C3)cc(=O)c2cc1C` (configuration not stated), which survival is on record?
Answer: inactive: 82%

Question: Which survival does the source give for `Cc1ccc(NC(=O)CN2C(=O)C(c3ccccc3)=NC2(C)C)cc1C` here?
Answer: inactive: 78%

Question: `CCc1ccc(-n2c(=O)c3cccnc3n2CC(=O)N(CC)c2cccc(C)c2)cc1` was tested. Which survival did it give?
Answer: inactive: 71%

Question: For `COc1cccc(C(=O)Nc2ccc3c(c2)CCCN3C(=O)c2cccs2)c1OC`, which survival is on record?
Answer: inactive: 88%

Question: How did the survival turn out when `Cc1ccccc1C(=O)Nc1ccccc1C(=O)OCc1cc(=O)n2nc(C3CC3)sc2n1` was run?
Answer: inactive: 129%

Question: `O=C(NC1CCSC1=O)c1ccc(Br)cc1` (configuration not stated) was tested. Which survival did it give?
Answer: inactive: 118%

Question: For `Cc1cc(-c2nc3ncccc3o2)ccc1NC(=O)COc1ccc(C(C)(C)C)cc1`, which survival is on record?
Answer: active: 26%

Question: How did the survival turn out when `Cc1c2cnn(-c3ccccc3)c(=O)c2c(C)n1CC(=O)NCc1ccc(Cl)cc1` was run?
Answer: inactive: 96%

Question: `CCN1CCCC1CNCC(=O)Nc1ccc(C)c(Br)c1` (configuration not stated) was tested. Which survival did it give?
Answer: inactive: 100%

Question: For `CCOc1ccc(Nc2c(S(=O)(=O)c3ccc(C)cc3)cnc3ccccc23)cc1`, which survival is on record?
Answer: inactive: 41%

Question: How did the survival turn out when `CCc1ccc(NC(=O)CSc2nnc(-c3nonc3NC(C)=O)n2-c2ccccc2)cc1` was run?
Answer: inactive: 56%

Question: For `CCn1cc2nc(SCc3cccc(C(F)(F)F)c3)n(CCc3ccccc3)c(=O)c2n1`, which survival is on record?
Answer: inactive: 127%

Question: With `CC1=C(C(N)=O)C(c2ccc(C(C)C)cc2)n2nc(SCc3ccccc3F)nc2N1` (configuration not stated) as the compound, how does the survival read?
Answer: inactive: 111%

Question: `COc1ccc(-c2cc(C)no2)cc1S(=O)(=O)Nc1cccc(C(F)(F)F)c1` was tested. Which survival did it give?
Answer: inactive: 72%

Question: Which survival does the source give for `Cc1c(CCNC(=O)c2ccc(C(F)(F)F)cc2)sc2nc(-c3ccc(F)cc3)nn12` here?
Answer: inactive: 81%

Question: With `COc1ccc(CCNC(=O)Cn2c(C)c3cnn(-c4ccccc4)c(=O)c3c2C)cc1OC` as the compound, how does the survival read?
Answer: inactive: 93%

Question: Which survival does the source give for `CCOc1ccc(NC(=O)Cn2cnc3nc4c(cc3c2=O)CCCC4)cc1` here?
Answer: inactive: 78%

Question: For `COCCn1c(-c2ccccc2)cnc1N`, which survival is on record?
Answer: inactive: 107%

Question: For `COc1ccc(-c2[nH]c(-c3ccc(F)cc3)nc2SCC(=O)Nc2ccc(OC)c(OC)c2)cc1`, which survival is on record?
Answer: inactive: 81%

Question: `Fc1ccc(-n2ncc3c(Nc4ccc(Oc5ccc(Cl)cc5)cc4)ncnc32)cc1` was tested. Which survival did it give?
Answer: inactive: 85%

Question: Which survival does the source give for `COC(=O)CNC(c1ccccc1)c1cc(Br)ccc1NC(=O)c1cc(OC)c(OC)c(OC)c1` (configuration not stated) here?
Answer: inactive: 77%

Question: Which survival does the source give for `CC1=C(c2ccc(Cl)cc2)S(=O)(=O)N=C1N1CCN(c2cccc(C)c2)C(C)C1` (configuration not stated) here?
Answer: inactive: 90%

Question: How did the survival turn out when `CCCCNC(=O)c1ccc(-c2nc(CS(=O)(=O)c3ccc(C)cc3)c(C)o2)cc1` was run?
Answer: inactive: 83%

Question: Which survival does the source give for `Cc1ccc(N2CC(c3nnc(Cc4ccc(F)cc4Cl)o3)CC2=O)cc1` (configuration not stated) here?
Answer: inactive: 35%

Question: `CCN1Cc2cccc(C(=O)Nc3ccc(F)cc3)c2C1=O` was tested. Which survival did it give?
Answer: inactive: 123%

Question: Which survival does the source give for `COc1ccc2c(c1)c(N1CCCC1=O)c(C(=O)Nc1ccc(Cl)cc1C)n2C` here?
Answer: inactive: 146%

Question: Which survival does the source give for `CCOC(=O)c1ccc(OCC2c3cc(OC)c(OC)cc3CCN2C(=O)Cc2ccc(OC)c(OC)c2)cc1` (configuration not stated) here?
Answer: inactive: 71%

Question: `CNC(=O)c1ccc(NC(=O)c2nsc3ccccc23)cc1` was tested. Which survival did it give?
Answer: inactive: 69%

Question: `COc1ccc(-n2c(CNc3ccccc3Cl)nnc2SCC(N)=O)cc1` was tested. Which survival did it give?
Answer: inactive: 102%

Question: Which survival does the source give for `Cc1ccc(-c2csc(=Nc3ccccc3)n2CCCO)cc1` here?
Answer: active: -7%

Question: With `CCOC(=O)c1ccc(NC(=O)Cn2nnc(-c3ccc(C(F)(F)F)cc3)n2)cc1` as the compound, how does the survival read?
Answer: inactive: 92%

Question: `COc1ccc(CCNC(=O)CCCn2c(=O)c3ccccc3n(CC(=O)Nc3c(C)cc(C)cc3C)c2=O)cc1OC` was tested. Which survival did it give?
Answer: inactive: 101%

Question: Which survival does the source give for `COC(=O)c1c(NC(=O)c2ccc(S(=O)(=O)N3CCCCC3)cc2)sc2c1CCN(C)C2` here?
Answer: inactive: 65%

Question: With `N#CCC(=O)N1CCCCCC1` as the compound, how does the survival read?
Answer: inactive: 103%

Question: With `Cc1ccc(-n2c(SCc3nc(-c4ccccc4C)no3)nnc2-c2ccncc2)cc1C` as the compound, how does the survival read?
Answer: inactive: 109%

Question: `Cc1cccc(-c2nc3sc(C)cc3c(=O)o2)c1` was tested. Which survival did it give?
Answer: inactive: 108%

Question: `CCOC(=O)c1c(-c2ccc(C)cc2)csc1NC(=O)c1ccc(C(C)(C)C)cc1` was tested. Which survival did it give?
Answer: inactive: 62%

Question: For `CCc1ccc(NC(=O)CCS(=O)(=O)c2ccc3c(c2)oc(=O)n3C)cc1`, which survival is on record?
Answer: inactive: 72%

Question: For `COC(=O)c1ccc(OC)c(Cn2c(=O)n(-c3cccc(Cl)c3)c(=O)c3c2c2cc(C)ccc2n3C)c1`, which survival is on record?
Answer: inactive: 82%

Question: How did the survival turn out when `COc1ccc(NC(=O)c2c(C)oc3ccc(O)c(CN4CCCC(C)C4)c23)cc1Cl` (configuration not stated) was run?
Answer: inactive: 83%

Question: For `Cc1ccc(-n2ncc(C(=O)N3CCc4ccccc4C3)c2C2CCN(C(=O)OC(C)(C)C)CC2)cc1C`, which survival is on record?
Answer: inactive: 71%

Question: With `Cc1ccc(C)c(CN2C(=O)c3ccccc3Sc3ccc(C(=O)NC4CCCC4)cc32)c1` as the compound, how does the survival read?
Answer: inactive: 133%

Question: `Cc1ccc(N2CCN(C(=O)CCc3c(C)nc4ncnn4c3C)CC2)c(C)c1` was tested. Which survival did it give?
Answer: inactive: 72%

Question: With `COc1ccccc1-c1noc(-c2ccc(NCCc3ccccc3)c([N+](=O)[O-])c2)n1` as the compound, how does the survival read?
Answer: inactive: 78%

Question: For `CCS(=O)(=O)c1ncc(Cl)c(C(=O)N(Cc2ccccc2)Cc2ccco2)n1`, which survival is on record?
Answer: inactive: 46%

Question: How did the survival turn out when `O=S1(=O)CCC(c2ccccc2)C1` (configuration not stated) was run?
Answer: inactive: 100%

Question: For `COc1ccccc1C(=O)Nc1ccccc1-c1nnn(CC(=O)N2CCN(c3ccc(F)cc3)CC2)n1`, which survival is on record?
Answer: inactive: 107%

Question: With `COc1ccc(-c2nc(CN3CCC(C(=O)NCCN(CC(C)C)CC(C)C)CC3)c(C)o2)cc1OC` as the compound, how does the survival read?
Answer: inactive: 123%

Question: `CC(C)(C)C(=O)OCc1cc(=O)n2nc(C3CCCCC3)sc2n1` was tested. Which survival did it give?
Answer: inactive: 59%

Question: For `CCn1cc(C(=O)NCCc2ccc(OC)c(OC)c2)c(=O)c2cc(S(=O)(=O)N3CCc4ccccc4C3)ccc21`, which survival is on record?
Answer: inactive: 88%

Question: For `COc1cccc(CNC(=O)CSc2ncc(S(=O)(=O)c3ccc(C)c(Cl)c3)c(=O)[nH]2)c1`, which survival is on record?
Answer: inactive: 68%

Question: With `Cc1ncc(CO)c2c1Oc1nc(-c3ccccc3F)nc(SCC(=O)N3CCCCC3)c1C2` as the compound, how does the survival read?
Answer: inactive: 89%

Question: With `CN(C1CCCCC1)C(c1ccc(F)cc1)c1nnnn1C1CCCCC1` (configuration not stated) as the compound, how does the survival read?
Answer: inactive: 102%

Question: How did the survival turn out when `COC(=O)c1ccccc1NC(=O)CN1C(=O)COc2ccccc21` was run?
Answer: inactive: 69%

Question: For `O=c1[nH][nH]c(=S)n2nc(-c3ccccc3)cc12`, which survival is on record?
Answer: inactive: 116%

Question: Which survival does the source give for `COc1cccc2cc(-c3nc(Cl)c4c5c(sc4n3)CC(C)CC5)c(=O)oc12` (configuration not stated) here?
Answer: inactive: 60%

Question: How did the survival turn out when `COC(=O)c1ccc(OC)c(CSc2nnc(COc3cc(C)cc(C)c3)o2)c1` was run?
Answer: inactive: 113%

Question: How did the survival turn out when `O=C(NS(=O)(=O)c1ccc(N=NN2CCOCC2)cc1)C12CC3CC(CC(C3)C1)C2` was run?
Answer: inactive: 106%

Question: For `COc1ccc(NC(=O)CSc2nc3c(c(=O)[nH]2)CN(Cc2ccccc2)CC3)cc1Cl`, which survival is on record?
Answer: inactive: 83%

Question: Which survival does the source give for `CCc1ccc(NC(=O)Cn2c(=O)n(Cc3ccccc3)c(=O)c3oc4ccccc4c32)cc1` here?
Answer: inactive: 85%

Question: `COC(=O)c1cccc(S(=O)(=O)N2CCC(NC(=O)Nc3cccc(F)c3)CC2)c1` was tested. Which survival did it give?
Answer: inactive: 110%

Question: With `Cc1ccc(S(=O)(=O)c2cn(C)c3cc(N4CCCC4)c(F)cc3c2=O)c(C)c1` as the compound, how does the survival read?
Answer: inactive: 76%

Question: How did the survival turn out when `CCOc1cc(C(=O)Nc2c(NC)c3ccccc3oc2=O)cc(OCC)c1OCC` was run?
Answer: inactive: 131%

Question: For `CCc1ccc(NC(=O)c2cnn(-c3c(C)cccc3C)c2C2CCNCC2)cc1`, which survival is on record?
Answer: inactive: 113%

Question: `CCOCCCNC(=O)c1c(NC(=O)c2cc(=O)c3cc(C)c(C)cc3o2)sc2c1CCC2` was tested. Which survival did it give?
Answer: inactive: 114%

Question: How did the survival turn out when `CCOC(=O)c1ccc(N2C(=O)c3[nH]nc(-c4ccc(OC)cc4)c3C2c2ccc(C)cc2)cc1` (configuration not stated) was run?
Answer: inactive: 89%

Question: For `COc1ccc(CN2C(=O)N(c3ccc(F)cc3)C(=O)C2CC(=O)Nc2ccccc2)cc1` (configuration not stated), which survival is on record?
Answer: inactive: 79%
